Measured values taken from the supplement of paper PMC8728848.
Some of the results follow.

What was measured:
Assay in all cases: glycan array binding signal (z-score within array); higher = stronger binding
Details in all cases: glycan notation: IUPAC condensed, linker removed
[1] = target: Fuc(a1-2)[GalNAc(a1-3)]Gal
Method in brief: (§1)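 Negative Z-scores can be read as non-binding. The Z-score is calculated within each array and then averaged across arrays of one protein sequence at different concentrations or buffers and across linkers. Arrays, 3228 in all, were curated from the Consortium for Functional Glycomics database and kept only where the protein sequence was available.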

[2] = target: Fuc(a1-2)[GalNAc(a1-3)]Gal(b1-3)GalNAc(a1-3)[Fuc(a1-2)]Gal(b1-4)GlcNAc
Method in brief: as §1

[3] = target: Fuc(a1-2)[GalNAc(a1-3)]Gal(b1-3)GalNAc(b1-3)Gal(a1-4)Gal(b1-4)Glc
Method in brief: as §1

[4] = target: Fuc(a1-2)[GalNAc(a1-3)]Gal(b1-3)GlcNAc
Method in brief: as §1

[5] = target: Fuc(a1-2)[GalNAc(a1-3)]Gal(b1-3)GlcNAc(b1-2)Man(a1-3)[Fuc(a1-2)[GalNAc(a1-3)]Gal(b1-3)GlcNAc(b1-2)Man(a1-6)]Man(b1-4)GlcNAc(b1-4)GlcNAc
Method in brief: as §1

[6] = target: Fuc(a1-2)[GalNAc(a1-3)]Gal(b1-3)GlcNAc(b1-2)Man(a1-3)[Fuc(a1-2)[GalNAc(a1-3)]Gal(b1-3)GlcNAc(b1-2)Man(a1-6)]Man(b1-4)GlcNAc(b1-4)[Fuc(a1-6)]GlcNAc
Method in brief: as §1

[7] = target: Fuc(a1-2)[GalNAc(a1-3)]Gal(b1-3)GlcNAc(b1-3)GalNAc
Method in brief: as §1

[8] = target: Fuc(a1-2)[GalNAc(a1-3)]Gal(b1-3)GlcNAc(b1-6)GalNAc
Method in brief: as §1

[9] = target: Fuc(a1-2)[GalNAc(a1-3)]Gal(b1-4)Glc
Method in brief: as §1

[10] = target: Fuc(a1-2)[GalNAc(a1-3)]Gal(b1-4)GlcNAc
Method in brief: as §1

[11] = target: Fuc(a1-2)[GalNAc(a1-3)]Gal(b1-4)GlcNAc(b1-2)Man
Method in brief: as §1

[12] = target: Fuc(a1-2)[GalNAc(a1-3)]Gal(b1-4)GlcNAc(b1-2)Man(a1-3)[Fuc(a1-2)[GalNAc(a1-3)]Gal(b1-4)GlcNAc(b1-2)Man(a1-6)]Man(b1-4)GlcNAc(b1-4)GlcNAc
Method in brief: as §1

[13] = target: Fuc(a1-2)[GalNAc(a1-3)]Gal(b1-4)GlcNAc(b1-2)Man(a1-3)[Fuc(a1-2)[GalNAc(a1-3)]Gal(b1-4)GlcNAc(b1-2)Man(a1-6)]Man(b1-4)GlcNAc(b1-4)[Fuc(a1-6)]GlcNAc
Method in brief: as §1

[14] = target: Fuc(a1-2)[GalNAc(a1-3)]Gal(b1-4)GlcNAc(b1-3)Gal(b1-4)GlcNAc
Method in brief: as §1

[15] = target: Fuc(a1-2)[GalNAc(a1-3)]Gal(b1-4)GlcNAc(b1-3)Gal(b1-4)GlcNAc(b1-3)Gal(b1-4)GlcNAc
Method in brief: as §1

[16] = target: Fuc(a1-2)[GalNAc(a1-3)]Gal(b1-4)GlcNAc(b1-3)GalNAc
Method in brief: as §1

[17] = target: Fuc(a1-2)[GalNAc(a1-3)]Gal(b1-4)GlcNAc(b1-3)[Fuc(a1-2)[GalNAc(a1-3)]Gal(b1-4)GlcNAc(b1-6)]GalNAc
Method in brief: as §1

[18] = target: Fuc(a1-2)[GalNAc(a1-3)]Gal(b1-4)GlcNAc(b1-6)GalNAc
Method in brief: as §1

[19] = target: Fuc(a1-2)[GalNAc(a1-3)]Gal(b1-4)[Fuc(a1-3)]GlcNAc
Method in brief: as §1

[20] = target: Fuc(a1-2)[GalNAc(a1-3)]Gal(b1-4)[Fuc(a1-3)]GlcNAc(b1-3)GalNAc
Method in brief: as §1

[21] = target: Fuc(a1-2)[GalNAc(a1-4)]Gal(b1-4)GlcNAc
Method in brief: as §1

[22] = target: Fuc(a1-2)[GalNAc(b1-3)]Gal
Method in brief: as §1

Fuc(a1-3)GlcNAc = target: Fuc(a1-3)GlcNAc
Method in brief: as §1

[23] = target: Fuc(a1-3)[Gal(b1-4)]Glc6S
Method in brief: as §1

[24] = target: Fuc(a1-3)[Gal(b1-4)]GlcNAc
Method in brief: as §1

[25] = target: Fuc(a1-3)[Gal(b1-4)]GlcNAc(b1-2)Man
Method in brief: as §1

[26] = target: Fuc(a1-3)[Gal(b1-4)]GlcNAc(b1-2)Man(a1-3)[Fuc(a1-3)[Gal(b1-4)]GlcNAc(b1-2)Man(a1-6)]Man(b1-4)GlcNAc(b1-4)GlcNAc
Method in brief: as §1

[27] = target: Fuc(a1-3)[Gal(b1-4)]GlcNAc(b1-2)Man(a1-3)[Fuc(a1-3)[Gal(b1-4)]GlcNAc(b1-2)Man(a1-6)]Man(b1-4)GlcNAc(b1-4)[Fuc(a1-6)]GlcNAc
Method in brief: as §1

[28] = target: Fuc(a1-3)[Gal(b1-4)]GlcNAc(b1-3)Gal(b1-3)[Fuc(a1-4)]GlcNAc
Method in brief: as §1

[29] = target: Fuc(a1-3)[Gal(b1-4)]GlcNAc(b1-3)GalNAc
Method in brief: as §1

[30] = target: Fuc(a1-3)[Gal(b1-4)]GlcNAc(b1-4)Gal(b1-4)[Fuc(a1-3)]GlcNAc
Method in brief: as §1

[31] = target: Fuc(a1-3)[Gal(b1-4)]GlcNAc(b1-4)Gal(b1-4)[Fuc(a1-3)]GlcNAc(b1-4)Gal(b1-4)[Fuc(a1-3)]GlcNAc
Method in brief: as §1

[32] = target: Fuc(a1-3)[Gal(b1-4)]GlcNAc(b1-6)GalNAc
Method in brief: as §1

[33] = target: Fuc(a1-3)[Gal(b1-4)]GlcNAc(b1-6)[Gal(b1-3)GlcNAc(b1-3)]Gal(b1-4)Glc
Method in brief: as §1

[34] = target: Fuc(a1-3)[Gal(b1-4)]GlcNAc6S
Method in brief: as §1

[35] = target: Fuc(a1-3)[Gal3S(b1-4)]Glc
Method in brief: as §1

[36] = target: Fuc(a1-3)[Gal3S(b1-4)]GlcNAc
Method in brief: as §1

[37] = target: Fuc(a1-3)[Gal3S(b1-4)]GlcNAc6S
Method in brief: as §1

B1: Pbx1 (Cryptococcus neoformans) (protein)
chain: ATTKCLVSGDQDSINNALALGGEGTTVTLCPGSVHRLNSSIIFTAPSQTLTTLGNPKDRNRAMLVVDGEDLACAIRADCKQCSHAMIRSLVIDGNRPQLLRIPKGDALIEVGNAESQTVRDCKLYEPRGWSALHFREGDERQCRFGHIVDNEIGPCGEEWDDEYDSMDETKPLWGNPRADGISLACKDSIVERNVVYDATDGAIVLFGSAGSTVKNNHVYARTRVILGGINLVDYEPWDGDYTNVKVHHNHLYALGRYFKVGIVIGPASWSDDTESVVHSASVTDNEFSGGYWGYGIVVASAKNFEVLRNKVIWDGEQGVARFSGVPGSRCPKAPENGKPTAFLINRGSAKGIFQDDFVNGEVQHIICLNPDQDPPYKPWRFRDSPEAIAAKQAENPTANSAFDSRIAEALVSYQMSLLNSMDAMTQKVEHLTNPIVDDALPFVHEHERAEADKKARQEASRKEKESGNKDVDMLNVKVEELEKSGRRLKKALDGLKSDFEGLSGRLKKSADENKPIIETIFVTSQNLLLGATSQQN
- glycan array binding signal (z-score) [1]: -0.406
- glycan array binding signal (z-score) [2]: -0.158
- glycan array binding signal (z-score) [3]: -0.549
- glycan array binding signal (z-score) [4]: -0.199
- glycan array binding signal (z-score) [5]: 0.576
- glycan array binding signal (z-score) [6]: -0.719
- glycan array binding signal (z-score) [7]: -0.307
- glycan array binding signal (z-score) [8]: -0.596
- glycan array binding signal (z-score) [9]: -0.538
- glycan array binding signal (z-score) [10]: -0.547
- glycan array binding signal (z-score) [11]: -0.397
- glycan array binding signal (z-score) [12]: -0.084
- glycan array binding signal (z-score) [13]: -0.093
- glycan array binding signal (z-score) [14]: -0.45
- glycan array binding signal (z-score) [15]: 1.2
- glycan array binding signal (z-score) [16]: -0.042
- glycan array binding signal (z-score) [17]: -0.35
- glycan array binding signal (z-score) [18]: 0.252
- glycan array binding signal (z-score) [19]: 0.016
- glycan array binding signal (z-score) [20]: 1.65
- glycan array binding signal (z-score) [21]: 0.277
- glycan array binding signal (z-score) [22]: -0.182
- glycan array binding signal (z-score) (Fuc(a1-3)GlcNAc): -0.718
- glycan array binding signal (z-score) [23]: 0.382
- glycan array binding signal (z-score) [24]: -0.605
- glycan array binding signal (z-score) [25]: -0.043
- glycan array binding signal (z-score) [26]: 0.019
- glycan array binding signal (z-score) [27]: 1.46
- glycan array binding signal (z-score) [28]: -0.985
- glycan array binding signal (z-score) [29]: 0.997
- glycan array binding signal (z-score) [30]: 0.596
- glycan array binding signal (z-score) [31]: 0.276
- glycan array binding signal (z-score) [32]: 2.34
- glycan array binding signal (z-score) [33]: -0.738
- glycan array binding signal (z-score) [34]: 0.038
- glycan array binding signal (z-score) [35]: -0.501
- glycan array binding signal (z-score) [36]: 0.636
- glycan array binding signal (z-score) [37]: 0.635
